Six substances from PMC3418226 can be followed below.

Protein sequences, listed by entry. Tags and fused reporters are not part of them. Lines headed by an entry give the natural chain unless they say otherwise; changes in a name come on top. Chains listed by the source or under a name are the forms on record and can include a tag or linker. Residues count along the entry.
myc-CD3ζ Y72FY83F (P20963-1, form named): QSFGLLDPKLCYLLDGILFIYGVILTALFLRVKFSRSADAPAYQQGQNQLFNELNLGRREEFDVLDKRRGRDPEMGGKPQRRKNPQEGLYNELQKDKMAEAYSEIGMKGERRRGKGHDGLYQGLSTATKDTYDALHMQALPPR
myc-CD3ζ-Y72F (P20963-1, form named): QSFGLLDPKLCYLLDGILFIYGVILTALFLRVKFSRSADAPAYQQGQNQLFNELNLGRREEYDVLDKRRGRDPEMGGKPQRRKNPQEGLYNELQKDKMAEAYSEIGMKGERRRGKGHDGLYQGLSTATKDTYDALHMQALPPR
myc-CD3ζ-Y83F (P20963-1, form named): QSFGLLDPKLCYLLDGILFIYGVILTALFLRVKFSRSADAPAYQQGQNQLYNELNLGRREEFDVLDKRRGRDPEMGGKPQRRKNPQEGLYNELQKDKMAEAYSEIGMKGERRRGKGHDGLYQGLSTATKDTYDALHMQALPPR
UniProt Q96DU3, residues 22-332: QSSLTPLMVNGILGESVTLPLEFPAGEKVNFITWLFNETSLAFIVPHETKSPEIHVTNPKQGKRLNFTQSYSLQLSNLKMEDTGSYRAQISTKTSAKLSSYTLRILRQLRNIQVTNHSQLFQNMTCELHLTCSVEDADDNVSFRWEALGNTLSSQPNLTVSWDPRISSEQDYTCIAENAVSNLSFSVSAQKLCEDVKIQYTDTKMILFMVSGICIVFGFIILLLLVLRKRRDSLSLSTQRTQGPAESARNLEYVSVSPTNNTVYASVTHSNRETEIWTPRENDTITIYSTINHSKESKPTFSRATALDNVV

Assay [1] addresses T1, GST-SAP fusion protein (UniProt O60880).
T1 sequence: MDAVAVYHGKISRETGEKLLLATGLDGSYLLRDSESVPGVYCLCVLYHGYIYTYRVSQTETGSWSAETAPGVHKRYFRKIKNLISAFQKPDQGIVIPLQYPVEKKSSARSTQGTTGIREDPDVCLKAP
In words: pull-down; purified GST-SAP added to precleared lysates of T-cell blasts (PBL) stimulated or not with UCHT-1 for 10 min; glutathione-sepharose, 4°C; blots for phosphotyrosine or CD3ζ; only the target purified.

Assay [2] has as its target T1, GST-SAP fusion protein. Put plainly: pull-down; purified GST-SAP (2-5 μg) added to precleared whole cell lysates of Jurkat cells, untreated or stimulated with UCHT-1 (10 min) or 25 μM pervanadate (30 min); glutathione-sepharose, 4°C; blots for phosphotyrosine, NTB-A or CD3ζ; only the target purified.
Assay [3] concerns the target T1, GST-SAP fusion protein. Put plainly: pull-down; purified GST-SAP added to precleared lysates of HeLa cells transfected with myc-CD3ζ constructs, 48 h, treated with pervanadate; glutathione-sepharose; anti-Myc (9E10) blot; only the target purified.

No constants are given. Whether binding was seen depends on the method and setting. In cells and extracts the contact can be indirect. Some results given as binding are weak or reduced against the parent protein; the word gives no strength. Where a sequence is shown, tags or fusion partners need not be part of it.

On to “CD3ζ from activated T cells, tyrosine-phosphorylated p20-21 forms (from UniProt P20963-1 22-164)”, for which the binding entry with GST-SAP fusion protein [1] and with GST-SAP fusion protein [2] was “binds” throughout.
Take “NTB-A (from UniProt Q96DU3 22-332) (receptor)”: the binding result in the assay with GST-SAP fusion protein [2] is given as “binds”.
“myc-CD3ζ Y72FY83F (from UniProt P20963-1 22-164)”: the binding entry with GST-SAP fusion protein [3] is listed as “no binding”.
On the same count and under the same terms, in the case of “myc-CD3ζ-WT (from UniProt P20963-1 22-164)” it was “binds”; in that of “myc-CD3ζ-Y72F (from UniProt P20963-1 22-164)”, “binds”.
Same read-out and setting: the result for “myc-CD3ζ-Y83F (from UniProt P20963-1 22-164)” reads “binds”.
